Laboratory results published in the supplement of paper PMC4967469.
IC50 is the fitted dose that halves viability relative to control wells, and lower means more sensitive; a fit beyond the top or the lowest dose is shown as a bound at that dose. For AUC the same curve is integrated over the 256-fold range of doses and scaled to a fraction; it is 1 without any effect and falls as sensitivity rises. For some assays here: Any top dose called inferred is not printed in the source and was worked back from the curve model. For some assays here: Where an entry number is given, a second screen of the drug exists; the two often differ.

Legend:
Assay in all cases: Viability of human cancer cell lines after 72 h of drug (GDSC screen)
Masitinib = compound: Cc1ccc(NC(=O)c2ccc(CN3CCN(C)CC3)cc2)cc1Nc1nc(-c2cccnc2)cs1 [Masitinib]; details: top dose 20 µM
Protocol: (§1)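 Human cancer cell lines in 384-well plates, medium with 10% serum, drug for 72 h over a 256-fold dose range (nine 2-fold or five 4-fold steps up to the top dose). Adherent lines were fixed and stained with the nucleic acid dye Syto60, suspension lines read with resazurin; signal relative to control wells, capped at 0 and 100%. One two-parameter sigmoid per drug and line, fitted in a mixed model over all curves with the slope shared within a line.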

NSC-87877 = compound: O=S(=O)(O)c1ccc2cc(N=Nc3cc(S(=O)(=O)O)c4cccnc4c3O)ccc2c1 [NSC-87877]; details: top dose 16 µM; top dose inferred
Protocol: as §1

LAQ824 = compound: O=C(/C=C/c1ccc(CN(CCO)CCc2c[nH]c3ccccc23)cc1)NO [LAQ824]; details: top dose 1.024 µM; top dose inferred
Protocol: as §1

Tamoxifen = compound: CC/C(=C(\c1ccccc1)c1ccc(OCCN(C)C)cc1)c1ccccc1 [Tamoxifen]; details: top dose 5 µM
Protocol: as §1

Bleomycin = compound: Cc1c(N)nc([C@H](CC(N)=O)NC[C@H](N)C(N)=O)nc1C(=O)N[C@H](C(=O)N[C@H](C)[C@@H](O)[C@H](C)C(=O)N[C@H](C(=O)NCCc1nc(-c2nc(C(=O)NCCC[S+](C)C)cs2)cs1)[C@@H](C)O)[C@@H](OC1OC(CO)C(O)C(O)C1OC1OC(CO)C(O)C(OC(N)=O)C1O)c1cnc[nH]1 [Bleomycin]
Protocol: as §1

Elesclomol = compound: CN(NC(=O)CC(=O)NN(C)C(=S)c1ccccc1)C(=S)c1ccccc1 [Elesclomol]; details: top dose 0.2 µM; top dose inferred
Protocol: as §1

BX-912 = compound: O=C(Nc1cccc(Nc2ncc(Br)c(NCCc3cnc[nH]3)n2)c1)N1CCCC1 [BX-912]; details: top dose 10.24 µM; top dose inferred
Protocol: as §1

VNLG/124 = compound: CCCC(=O)OCc1ccc(OC(=O)/C=C(C)/C=C/C=C(C)/C=C/C2=C(C)CCCC2(C)C)cc1 [VNLG/124]; details: top dose 5.12 µM; top dose inferred
Protocol: as §1

OSI-930 = compound: O=C(Nc1ccc(OC(F)(F)F)cc1)c1sccc1NCc1ccnc2ccccc12 [OSI-930]; details: top dose 10.24 µM
Protocol: as §1

[1] = top dose 50 µM, screen: GDSC drug entry 1378, top dose inferred
[2] = top dose 64 µM, screen: GDSC drug entry 190

Cell Line | AUC (Masitinib) | IC50 (Masitinib) [µM] | AUC (NSC-87877) | IC50 (NSC-87877) [µM] | AUC (LAQ824) | IC50 (LAQ824) [µM] | AUC (Tamoxifen) | IC50 (Tamoxifen) [µM] | AUC (Bleomycin; [1]) | IC50 (Bleomycin; [1]) [µM] | AUC (Bleomycin; [2]) | IC50 (Bleomycin; [2]) [µM] | AUC (Elesclomol) | IC50 (Elesclomol) [µM] | AUC (BX-912) | IC50 (BX-912) [µM] | AUC (VNLG/124) | IC50 (VNLG/124) [µM] | AUC (OSI-930) | IC50 (OSI-930) [µM]
RH-41 (rhabdomyosarcoma, adherent) | 0.898 | 17.8 | 0.982 | > 16 | 0.479 | 0.0568 | 0.992 | > 5 | 0.902 | 46.3 | 0.969 | > 64 | 0.264 | 0.00305 | 0.584 | 1.04 | 0.98 | > 5.12 | 0.985 | > 10.2
OAW-42 (ovary, adherent) | 0.969 | > 20 | 0.92 | > 16 | 0.414 | 0.0365 | 0.943 | > 5 | 0.751 | 17.7 | 0.201 | 0.477 | 0.756 | 0.0737 | 0.863 | 10.2 | 0.975 | > 5.12 | 0.947 | > 10.2
MS751 (cervix, adherent) | 0.973 | > 20 | 0.986 | > 16 | 0.567 | 0.0958 | 0.976 | > 5 | 0.775 | 18.2 | 0.727 | 16.7 | 0.587 | 0.0212 | 0.969 | > 10.2 | 0.989 | > 5.12 | 0.982 | > 10.2
KMRC-1 (kidney, adherent) | 0.981 | > 20 | 0.974 | > 16 | 0.79 | 0.488 | 0.952 | > 5 | 0.761 | 18.8 | 0.853 | 55 | 0.766 | 0.078 | 0.978 | > 10.2 | 0.985 | > 5.12 | 0.972 | > 10.2
L-540 (Hodgkin lymphoma, suspension) | 0.885 | 17.7 | 0.99 | > 16 | 0.455 | 0.0489 | 0.983 | > 5 | 0.551 | 4.24 | 0.759 | 20.2 | 0.621 | 0.0259 | 0.934 | > 10.2 | 0.985 | > 5.12 | 0.951 | > 10.2
H3255 (lung adenocarcinoma, adherent) | 0.965 | > 20 | 0.963 | > 16 | 0.563 | 0.0986 | 0.981 | > 5 | 0.828 | 39.2 | 0.9 | > 64 | 0.862 | > 0.2 | 0.945 | > 10.2 | 0.981 | > 5.12 | 0.977 | > 10.2
SW1417 (large intestine, adherent) | 0.969 | > 20 | 0.97 | > 16 | 0.509 | 0.0681 | 0.985 | > 5 | 0.923 | > 50 | 0.9 | > 64 | 0.92 | > 0.2 | 0.974 | > 10.2 | 0.986 | > 5.12 | 0.958 | > 10.2
JM1 (B-cell lymphoma, suspension) | 0.908 | > 20 | 0.964 | > 16 | 0.286 | 0.0176 | 0.988 | > 5 | 0.625 | 6.53 | 0.518 | 4.44 | 0.444 | 0.00898 | 0.599 | 1.15 | 0.991 | > 5.12 | 0.951 | > 10.2
Mewo (melanoma, adherent) | 0.946 | > 20 | 0.836 | 13.7 | 0.843 | 0.95 | 0.983 | > 5 | 0.509 | 3.32 | 0.839 | 56.7 | 0.602 | 0.0252 | 0.983 | > 10.2 | 0.982 | > 5.12 | 0.978 | > 10.2
RPMI-6666 (Hodgkin lymphoma, suspension) | 0.753 | 7.89 | 0.981 | > 16 | 0.186 | 0.00579 | 0.956 | > 5 | 0.335 | 0.981 | 0.225 | 0.521 | 0.977 | > 0.2 | 0.705 | 2.76 | 0.822 | 3.84 | 0.811 | 6.83
SW13 (adrenal gland, adherent) | 0.979 | > 20 | 0.972 | > 16 | 0.464 | 0.0511 | 0.971 | > 5 | 0.283 | 0.751 | 0.087 | < 0.25 | 0.422 | 0.00763 | 0.988 | > 10.2 | 0.988 | > 5.12 | 0.984 | > 10.2
CHL-1 (melanoma, adherent) | 0.938 | > 20 | 0.961 | > 16 | 0.246 | 0.0125 | 0.981 | > 5 | 0.641 | 7.48 | 0.236 | 0.729 | 0.317 | 0.00397 | 0.932 | > 10.2 | 0.979 | > 5.12 | 0.961 | > 10.2
PSN1 (pancreas, adherent) | 0.884 | 15.8 | 0.99 | > 16 | 0.284 | 0.0176 | 0.99 | > 5 | 0.422 | 1.99 | 0.098 | 0.264 | 0.312 | 0.00409 | 0.849 | 5.93 | 0.991 | > 5.12 | 0.943 | > 10.2
NCI-H187 (small cell lung carcinoma, suspension) | 0.926 | > 20 | 0.988 | > 16 | 0.51 | 0.0683 | 0.985 | > 5 | 0.961 | > 50 | 0.975 | > 64 | 0.969 | > 0.2 | 0.804 | 5.64 | 0.988 | > 5.12 | 0.988 | > 10.2
HCC-827 (lung adenocarcinoma, adherent) | 0.985 | > 20 | 0.975 | > 16 | 0.556 | 0.0935 | 0.946 | > 5 | 0.719 | 14.5 | 0.926 | > 64 | 0.676 | 0.042 | 0.928 | > 10.2 | 0.983 | > 5.12 | 0.985 | > 10.2
23132-87 (stomach, adherent) | 0.939 | > 20 | 0.98 | > 16 | 0.456 | 0.0484 | 0.979 | > 5 | 0.402 | 1.66 | 0.221 | 0.589 | 0.742 | 0.0634 | 0.952 | > 10.2 | 0.984 | > 5.12 | 0.982 | > 10.2
DAN-G (pancreas, adherent) | 0.932 | > 20 | 0.992 | > 16 | 0.596 | 0.113 | 0.991 | > 5 | 0.307 | 0.976 | 0.953 | > 64 | 0.56 | 0.0178 | 0.964 | > 10.2 | 0.985 | > 5.12 | 0.969 | > 10.2
PC-3 [JPC-3] (lung adenocarcinoma, adherent) | 0.898 | > 20 | 0.981 | > 16 | 0.458 | 0.0473 | 0.978 | > 5 | 0.798 | 33.1 | 0.578 | 6.99 | 0.838 | > 0.2 | 0.892 | > 10.2 | 0.947 | > 5.12 | 0.965 | > 10.2
NCI-H1836 (small cell lung carcinoma, suspension) | 0.961 | > 20 | 0.979 | > 16 | 0.443 | 0.044 | 0.975 | > 5 | 0.872 | > 50 | 0.976 | > 64 | 0.988 | > 0.2 | 0.889 | > 10.2 | 0.973 | > 5.12 | 0.964 | > 10.2
YKG-1 (glioma, adherent) | 0.88 | > 20 | 0.924 | > 16 | 0.455 | 0.0481 | 0.98 | > 5 | 0.408 | 1.74 | 0.413 | 2.31 | 0.516 | 0.0139 | 0.913 | > 10.2 | 0.926 | > 5.12 | 0.922 | > 10.2
M14 (melanoma, adherent) | 0.903 | > 20 | 0.966 | > 16 | 0.733 | 0.308 | 0.985 | > 5 | 0.642 | 7.88 |  |  | 0.828 | 0.133 | 0.963 | > 10.2 | 0.982 | > 5.12 | 0.985 | > 10.2
NCI-H2023 (lung adenocarcinoma, adherent) | 0.944 | > 20 | 0.975 | > 16 | 0.605 | 0.134 | 0.98 | > 5 | 0.576 | 5.33 | 0.25 | 0.625 | 0.698 | 0.0522 | 0.978 | > 10.2 | 0.981 | > 5.12 | 0.981 | > 10.2
HO-1-u-1 (head and neck, adherent) | 0.971 | > 20 | 0.984 | > 16 | 0.572 | 0.1 | 0.987 | > 5 | 0.171 | 0.333 | 0.595 | 7.18 | 0.416 | 0.00742 | 0.965 | > 10.2 | 0.986 | > 5.12 | 0.987 | > 10.2
WM793B (melanoma, adherent) | 0.782 | 9.34 | 0.965 | > 16 | 0.493 | 0.0613 | 0.981 | > 5 | 0.423 | 1.88 | 0.258 | 0.744 | 0.371 | 0.00531 | 0.921 | > 10.2 | 0.984 | > 5.12 | 0.968 | > 10.2
SKG-IIIa (cervix, adherent) | 0.976 | > 20 | 0.981 | > 16 | 0.475 | 0.0534 | 0.977 | > 5 | 0.621 | 7.52 | 0.85 | > 64 | 0.66 | 0.0407 | 0.976 | > 10.2 | 0.979 | > 5.12 | 0.968 | > 10.2
G-402 (soft tissue, adherent) | 0.661 | 4.08 | 0.955 | > 16 | 0.478 | 0.0548 | 0.918 | > 5 | 0.278 | 0.584 | 0.153 | < 0.25 | 0.274 | 0.00225 | 0.591 | 1.23 | 0.963 | > 5.12 | 0.91 | > 10.2
